Literature values, collected in PMC9411691, “Protein-Ligand Identification and In Vitro Inhibitory Effects of Cathine on 11 Major Human Drug Metabolizing Cytochrome P450s” (International Journal of Toxicology, 2022).
Structures can show the parent of a compound that is named as a salt.

Columns and labels:
[1] = cited from earlier work
CYP2C9 = CYP2C9 (Homo sapiens, UniProt P11712); conditions: earlier study of the authors; cited from earlier work
[2] = human, ref https://www.emcdda.europa.eu/publications/drug-profiles/khat

UniProt P11712, sequence (P11712 whole entry): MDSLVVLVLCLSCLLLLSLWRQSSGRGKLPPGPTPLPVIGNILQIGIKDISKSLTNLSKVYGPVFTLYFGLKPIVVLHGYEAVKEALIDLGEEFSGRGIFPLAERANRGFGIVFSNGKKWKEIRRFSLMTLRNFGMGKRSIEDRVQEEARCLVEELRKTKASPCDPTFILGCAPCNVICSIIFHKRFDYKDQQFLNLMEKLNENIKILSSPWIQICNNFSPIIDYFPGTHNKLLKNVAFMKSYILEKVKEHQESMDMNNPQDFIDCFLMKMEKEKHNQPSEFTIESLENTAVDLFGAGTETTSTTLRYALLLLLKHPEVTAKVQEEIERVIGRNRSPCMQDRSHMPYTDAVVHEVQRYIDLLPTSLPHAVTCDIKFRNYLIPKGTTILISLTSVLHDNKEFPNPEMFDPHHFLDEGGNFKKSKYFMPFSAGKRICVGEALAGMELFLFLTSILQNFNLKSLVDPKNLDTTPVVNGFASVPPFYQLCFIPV

C[C@H](N)[C@@H](O)c1ccccc1 [Cathine, (1 S, 2 S)-2-amino-1-phenylpropan-1-ol.hydrochloride]
serum concentration relative to cathinone ([1]; case report, khat chewer with haemorrhagic stroke): 100 fold | time at which maximal plasma concentrations are reached ([1]; human plasma, khat chewing): 2.6 h | detectable in the urine after ingestion, up to ([1]; human urine): 50 to 70 h | detectable in urine samples after ingestion ([1]; human urine): ≥ 3 days | fraction absorbed in the mucosa of the oral cavity ([1]; human, khat chewing): 84 ± 6% | mean residence time (MRT) ([1]; human, khat chewing): 10.2 ± 2.6 h | elimination half-life [1, 2]: 5.2 ± 3.4 h

C[C@H](N)C(=O)c1ccccc1 [cathinone]
inhibition of CYP2C9 in vitro, in words (CYP2C9): negligible inhibition | detectable in the urine after ingestion, up to ([1]; human urine): 22 to 26 h | elimination half-life [1, 2]: 1.5 ± 0.8 h | excreted in the urine [1, 2]: 2%
